# According to the supplement of paper PMC10681739:
# ± gives the standard deviation of the averaged measurements. In all, about 4,000 sequences were measured (“arbitrary fluorescence units”: median about 830, highest 2% from about 6,500 on). Most of the strongest results are missing from this list.
# Biological target: RUNX1 (UniProt Q01196)
# Test: RUNX1 binding intensity (PBM fluorescence), RUNX1 alone (arbitrary fluorescence units); higher = stronger binding
# Conditions: RUNX1 concentration 2 nM; ETS1 concentration 0 nM
# Procedure: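 gcPBM on 36-bp genomic-derived probes (partner site mutated) containing one RUNX1 site and no ETS1 site. Recombinant human RUNX1 (2 nM) was incubated alone or with ETS1 (25 nM) and detected by anti-RUNX1 antibody fluorescence. Values are medians over 4 replicate spots (not normalised). The probes sit in constant array flanks that are not printed.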
# 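Further: Full-length recombinant human RUNX1 bound to double-stranded DNA microarray spots, detected with an Alexa488-labelled secondary antibody after the anti-RUNX1 primary, read as scanned spot fluorescence.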
# Chain of UniProt Q01196 (Q01196 whole entry): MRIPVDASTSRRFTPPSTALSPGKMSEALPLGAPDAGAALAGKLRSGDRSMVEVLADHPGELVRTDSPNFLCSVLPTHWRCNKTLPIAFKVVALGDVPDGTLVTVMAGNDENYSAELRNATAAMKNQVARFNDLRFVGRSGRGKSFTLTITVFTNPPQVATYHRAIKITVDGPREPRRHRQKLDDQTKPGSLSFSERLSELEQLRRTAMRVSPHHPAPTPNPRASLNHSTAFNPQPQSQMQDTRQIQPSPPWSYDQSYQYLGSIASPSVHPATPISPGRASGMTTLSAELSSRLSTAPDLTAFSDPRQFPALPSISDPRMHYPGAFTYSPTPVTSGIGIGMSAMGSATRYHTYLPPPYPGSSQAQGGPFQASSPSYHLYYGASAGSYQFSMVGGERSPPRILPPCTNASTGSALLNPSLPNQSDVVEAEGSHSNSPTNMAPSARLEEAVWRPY
row,Sequence,RUNX1 binding intensity
1,AGCCCGGCTTCAGGCGCGTGCCGCTGCGGCTGCAGG,711
2,GGCCTCTGCGGCGCCGCGACATGAAGCGGCGGGCGA,689
3,GCTGCCACCTCCCTTGCTTATTTCATGTGGTTTGGA,1150
4,TGGGCATTACCGCTTTCCAGCTGAAGGGGGCATCTT,842
5,GCTTCTGAGGCAGTGCGTTTTGTGGGTAGGTGGAGT,821
6,CCCCTGCCCCTTCATGGAAGGCTGCGGTGTAACACC,916
7,GCGCACTCCCGGGCTGGTGAACGCGGTGACGTCACC,708
8,GTGCGGAACCGCCATTTTTAAAGGGCCAGGGAGCTT,760
9,CCCGCGGTGCGTGCGCAGCTCCGACTCCCGGGTGCT,802
10,CAAACGATAGCAGCAAAGGCCTGTGGCTTGACAGCA,713
11,GCATTGTGCTTCAGCTCGGGGAAAGACCGCTTACGG,643
12,GCCAGGCGCCCACAGGTTGGCATGAAGAGCACTTAG,774
13,AGGGATGCTGGGACATGTAGTCCAGCCACAAGCCAA,761
14,CCTTTGTGGTAGCAGTGGCCCCGCGCGGAGGACGTT,860
15,CTGTCTTGGTTTTCTGTTCTTATTTTAGTTTCATGT,1850
16,TTCCAGTTTGCGCCAGCCACCTGAACTGCGGCCCAG,760
17,TTCTGCAAGAAAACCAACATAATTTGCTGTCTCTAC,754
18,GAGGTTGGGAACTTCTTCCTTTGGTCTGACCACAGT,793
19,GCACAAAGCCACAAAACCCATTCCTGCCGGCTATGA,1430
20,AAAGGCACGGTGGTTAGCGCGGGCTTGCTGGAGGAC,789
21,CGGGGCGCGGTTCCCCCTGGGCTCCCTGAAGTAATA,759

row,Sequence,RUNX1 binding intensity
1,CCACACGGCAGGGAGTCGTGTCGTGGTTTACCCCGG,752
2,CGGAGCGCGGTGGGGTGGGTGCGGCAGGGGGCGAGG,874
3,CCATGAAGGCGCCTGCATCCTCCAAGCCCACAGAGC,822
4,TGTGGCAACCACAGCCCCAAAACAAAGAGGAGACAC,1040
5,GGCACTCCCGGTCCTGACCTGAAGCGGTAACCGTCA,772
6,CTTGCGCCCACAGAGCCCGCCACTGCCGCCTCACAG,1000
7,GCACTCCCGGAGCCGGGCGTCTACAGACCGCGGCCA,790
8,GTAACAACACCACAGCGGACATGAAGAGGTCACCAA,793
9,TCCAACCTCAACATGCAAAACTCAGAGGCAACGCAG,891
10,CAACTCCGGCGCCCGCAGGCCACTTTCGCCTATGTA,1070
11,CGATGCTTACGGCCTCCTATTGGGTGGTTTCTTGGC,694
12,TAAAGAGGAATCGGCAGCCGCGCCTGCGCCCACAGT,625
13,CCCCTCCGCTAACCGCTCATCCCAGCAAAAAGGGGC,1240
14,AGCGGCTCCTGCCGGCGGCGCGGGTTCCCTTCCCTC,857
15,TCCCGGGAGCGGTTTTAGGGGGCCGCCTCCTTGGCC,685 ± 22
16,CCCCAGGTTGCTTCAGTTCTGGGAACCGCGTCCTCG,755
17,CCCGGCGGTTACTTTCGGTCACTTTCGCCGGGACCT,847
18,GCGCCCGGCCCCGCACACGCACCATTTGCTGGCTTC,906
19,CTGCTAGCTGAAGCAGCCAAGCCCACAGGCTCCAGG,712
20,AGACGGTTCCAGGGGACCGGCCGCGACTGCGGCGGC,670
21,TGGTCGCCGCAGCGAACAACCAGCTTACGGCAAGCT,687

row,Sequence,RUNX1 binding intensity
1,ACCTCCTCCGAGACCCAAAATGCGCGGTCTGGAGAG,855
2,TACAACCGCCAGTAACGACAGCAGCTTTCGTTCCCC,783
3,GTTGTGGGGAGTGCAAAAGCCCAGCAGCAAGCCGCT,777
4,TGCGAGGAGGCGCGGCCACGTGACTGCTGCGGGCCA,730
5,CAGGGAGGTGATGCACAGAAAACACAACCACACTGT,808
6,TAGCACCCAAAACCACCTACTGGCTTCAGGCACCTC,994
7,ATCACTTGTTGCCGCCAGCAAACCACAGGTCCCCAG,1230
8,GGCGGGTTCAGGCTATTCCCTTCGCGGTCCAGTTTA,818
9,CGATCCATTCGCGGTCTGCACCCGTAAAGTACACCT,1150
10,TGTTCAGGAACAGGCAATGAAACCCCGCAGCTTTGA,717
11,CCCGGCCCAGGCAACTTCAGACTTCACCGCAGCTTC,1060
12,CCGCCGCGCGCCGAATGCTAAGACCGCGATTTCCCC,805
13,TCCTCCGTTCCCGTAGTTCCGAGTTGCGGTTTCTCC,7620
14,AATATAGGAGGTGTCAGCTAGGGAACTCAACCACAA,828
15,GAGGGAAGCCCTCACCACAGCAGGAATGGGAGCCAG,769
16,TGGCTGGGCATGAAGGCCTGTGGCTTACGGTTCCTG,694
17,TGGCTACCCGAAAGGCGCGTTGGCTGCGGCTACGCA,733
18,GCACCGTACCCGGCACTGCTCCCTCCCGCAGGCGCA,901
19,GTTCTCCACATGCTGTGCCGTAGCTGTGGTGCACCG,819
20,CCCGCCAGTTCCCTGCCTCTGCGGGAGCCCCCCAGC,881
21,CAGAAAAGGCAGGCAGTGGTACAAACCACAAAAGGC,1060
